Data published in patent publication US20250041437A1, “HUMANIZED MUC1 ANTIBODY AND ANTIBODY DRUG CONJUGATE” (Sun Pharma Advanced Research Company Limited, priority 2023, published 2025).

How the values were obtained:
[1] = Single dose pharmacokinetics, COLO357 tumor bearing mouse, IV; assay type: in vivo
Protocol: The objective of this study was to evaluate serum, tumor and liver pharmacokinetics of TAB, CAB and uMMAE following 3 mg/kg single IV administration of M5LM4-ADC and pharmacokinetics of MMAE following 0.06 mg/kg single IV administration of MMAE alone in a COLO357 tumor bearing mouse model.
The blood samples were collected from the mouse at 0.083, 0.5, 1, 2, 4, 8, 24, 48, 72, 96, 168 and 336 hours post-dose (n=3 mice/time point; sparse sampling design) through retro-orbital plexuses and serum was immediately harvested. At 24, 48, 72, 96, 168 and 336 hour time-points, the tumor and liver were collected. Analysis of total antibody (TAB) and conjugated antibody (CAB) was done by a fit for purpose ELISA based method and analysis of free payload (MMAE) was done by a fit for purpose LC-MS/MS based method. Pharmacokinetic analysis was performed by the non-compartmental analysis tool of Phoenix WinNonlin® software.

[2] = target: T1, MUC1-SEA on COLO-357 cells (Homo sapiens, UniProt P15941); test: Dose dependent binding by flow cytometry on COLO357 cell line
T1 construct: endogenous in cells; host or cells: SKOV3, COLO357, HT29 (human cancer cell lines)
T1 sequence (P15941 24-1255): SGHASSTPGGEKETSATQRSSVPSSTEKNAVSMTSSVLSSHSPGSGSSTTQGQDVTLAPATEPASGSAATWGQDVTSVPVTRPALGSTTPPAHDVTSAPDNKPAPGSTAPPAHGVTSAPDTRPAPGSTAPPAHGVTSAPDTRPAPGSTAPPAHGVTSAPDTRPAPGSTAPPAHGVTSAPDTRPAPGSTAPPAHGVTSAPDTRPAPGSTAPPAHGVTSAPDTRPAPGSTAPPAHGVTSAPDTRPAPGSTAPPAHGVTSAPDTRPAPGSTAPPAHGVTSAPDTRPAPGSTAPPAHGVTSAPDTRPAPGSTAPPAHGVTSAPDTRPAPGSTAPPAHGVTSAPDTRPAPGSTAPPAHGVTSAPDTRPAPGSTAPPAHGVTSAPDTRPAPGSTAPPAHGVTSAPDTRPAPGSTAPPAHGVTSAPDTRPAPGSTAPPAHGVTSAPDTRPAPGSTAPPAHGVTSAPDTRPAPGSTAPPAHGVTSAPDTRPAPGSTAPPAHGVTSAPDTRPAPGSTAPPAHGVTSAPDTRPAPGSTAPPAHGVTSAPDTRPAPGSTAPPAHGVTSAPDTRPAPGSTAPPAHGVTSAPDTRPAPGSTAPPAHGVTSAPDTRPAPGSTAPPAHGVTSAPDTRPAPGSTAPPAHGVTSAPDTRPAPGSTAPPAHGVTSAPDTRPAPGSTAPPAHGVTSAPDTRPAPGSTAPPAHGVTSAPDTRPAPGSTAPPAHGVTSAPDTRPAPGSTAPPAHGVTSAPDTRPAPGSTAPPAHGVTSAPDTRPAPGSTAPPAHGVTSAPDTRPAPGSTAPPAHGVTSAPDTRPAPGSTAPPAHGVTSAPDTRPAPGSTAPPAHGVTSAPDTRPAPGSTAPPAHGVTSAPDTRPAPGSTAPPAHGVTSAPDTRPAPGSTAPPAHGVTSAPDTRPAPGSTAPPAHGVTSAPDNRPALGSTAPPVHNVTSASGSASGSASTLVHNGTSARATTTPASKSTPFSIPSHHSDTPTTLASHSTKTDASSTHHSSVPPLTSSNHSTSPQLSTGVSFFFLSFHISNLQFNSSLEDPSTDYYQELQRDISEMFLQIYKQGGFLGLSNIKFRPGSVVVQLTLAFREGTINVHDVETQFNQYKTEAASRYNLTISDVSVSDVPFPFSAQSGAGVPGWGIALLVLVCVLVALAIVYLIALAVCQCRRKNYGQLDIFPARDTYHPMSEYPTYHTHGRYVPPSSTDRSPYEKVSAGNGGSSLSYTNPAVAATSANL

[3] = system: COLO-357 pancreatic carcinoma cells; test: Growth inhibition of human cancer cell lines, COLO-357
[4] = Stability in human plasma (MMAE release); assay type: in vitro ADME; settings: 48 hours
Protocol: At the end of 48 hours, the MMAE released in human plasma was <5 nM, while in mouse plasma it was 214 nM corresponding to <0.1% and 4.5% MMAE release in human and mouse plasma, respectively.

[5] = Single dose pharmacokinetics, SKOV3 tumor bearing mouse, IV 3 mg/kg; assay type: in vivo; settings: 3 mg/kg IV
[6] = target: purified Cathepsin B enzyme (Homo sapiens, UniProt P07858); test: Stability in purified Cathepsin B enzyme assay; assay type: in vitro ADME; settings: 6 hours
[7] = system: BxPC3 pancreatic carcinoma cells; test: Growth inhibition of human cancer cell lines, BxPC3
[8] = CAB, HM5LM4-ADC 3 mg/kg IV, serum
[9] = CAB, HM5LM4-ADC 3 mg/kg IV, tumor
[10] = TAB, HM5LM4-ADC 3 mg/kg IV, liver
[11] = TAB, HM5LM4-ADC 3 mg/kg IV, serum
[12] = TAB, HM5LM4-ADC 3 mg/kg IV, tumor
[13] = single IV HM5LM4-ADC, COLO357 tumor bearing mice
[14] = uMMAE, HM5LM4-ADC 3 mg/kg IV, liver
[15] = uMMAE, HM5LM4-ADC 3 mg/kg IV, serum
[16] = uMMAE, HM5LM4-ADC 3 mg/kg IV, tumor
[17] = 5000 nM MMAE equivalent, 37° C.

B1: HM5LM4-ADC: humanized IgG anti-MUC1-SEA mAb HM5-LM4 conjugated to MC-Val-Cit-PABC-MMAE (conjugate)
heavy: EIQLVQSGAEVKKPGSSVKVSCKVTGHSITRGSSWHWMRQAPGQGLEWIGYIHYGGGTSYNPSLKSRITITRDTSTNTFYMELSSLRSEDTAFYFCARYSYDITYRWFFDVWGQGTLVTVSSASTKGPSVFPLAPSSKSTSGGTAALGCLVKDYFPEPVTVSWNSGALTSGVHTFPAVLQSSGLYSLSSVVTVPSSSLGTQTYICNVNHKPSNTKVDKRV[gap - human IgG1 Fc]
light: DIQMTQSPSTLSASVGDRVTITCRASQNIGTSIHWYQQKPGKAPKLLIKYASESISGVPSRFSGSGSGTEFTLTISSLQPDDFATYYCQQNNNWPLTFGQGTKVEIKRTVAAPSVFIFPPSDEQLKSGTASVVCLLNNFYPREAKVQWKVDNALQSGNSQESVTEQDSKDSTYSLSSTLTLSKADYEKHKVYACEVTHQGLSSPVTKSFNRGEC
modifications: non-natural residues
notes: humanized IgG anti-MUC1-SEA mAb HM5-LM4 conjugated to MC-Val-Cit-PABC-MMAE
B1 showed an AUCINF [1, 8] of 9.272 µM·h, a Cmax [1, 8] of 416 nM and a T1/2 [1, 8] of 59 h. It also gave a Tmax [1, 8] of 0.5 h, an AUC0-336 [1, 9] of 1.996 µM·h and a Cmax [1, 9] of 8.4 nM. For the same molecule, the T1/2 [1, 9] was 191 h, the AUC0-336 [1, 10] was 0.846 µM·h and the Cmax [1, 10] was 10 nM. For the same molecule, the T1/2 [1, 10] was 61 h, the AUC0-24 [1, 11] was 4.366 µM·h and the AUC0-336 [1, 11] was 9.624 µM·h. It also gave an AUCINF [1, 11] of 9.904 µM·h, a CL [1, 11] of 1.8 mL/h/kg and a Cmax [1, 11] of 360 nM. For the same molecule, the T1/2 [1, 11] was 78 h, the Tmax [1, 11] was 0.5 h and the Vss [1, 11] was 0.1 L/kg. The AUC0-336 [1, 12] was 2.275 µM·h, the Cmax [1, 12] was 10 nM and the “tumor exposure of uMMAE higher than in serum” value [1, 13] was 240 fold. The “tumor exposure of uMMAE higher than in the liver” value [1, 13] was 6.2 fold, the AUC0-336 [1, 14] was 2.686 µM·h and the Cmax [1, 14] was 32 nM. It also gave a T1/2 [1, 14] of 56 h, an AUC0-24 [1, 15] of 0.032 µM·h and an AUC0-336 [1, 15] of 0.07 µM·h. It also gave an AUCINF [1, 15] of 0.071 µM·h, a Cmax [1, 15] of 8 nM and a T1/2 [1, 15] of 37 h. For the same molecule, the Tmax [1, 15] was 0.5 h, the AUC0-336 [1, 16] was 16.82 µM·h and the Cmax [1, 16] was 84 nM. The T1/2 [1, 16] was 70 h, the “binding strength compared to unconjugated parent antibody” value [2] was “similar” and the “cytotoxic effect / growth inhibition (in words)” value ([3]; COLO-357, high MUC1-SEA expressing) was “observed”. It also gave an IC50 ([3]; read-out: Equivalent MMAE IC50, COLO-357, ADC expressed as equivalent MMAE) of 1.01 nM, an MMAE released [4, 17] of less than 5 nM and an MMAE release [4] of less than 0.1%. It also gave an AUC0-24 ([5]; CAB, serum) of 11.919 µM·h, an AUC0-168 ([5]; CAB, serum) of 48.969 µM·h and an AUCINF ([5]; CAB, serum) of 50.731 µM·h. It also gave a Cmax ([5]; CAB, serum) of 1060 nM, a T1/2 ([5]; CAB, serum) of 37 h and an AUC0-168 ([5]; CAB, tumor) of 0.914 µM·h. The Cmax ([5]; CAB, tumor) was 9.2 nM, the T1/2 ([5]; CAB, tumor) was 58 h and the AUC0-24 ([5]; TAB, serum) was 8.676 µM·h. It also gave an AUC0-168 ([5]; TAB, serum) of 36.226 µM·h, an AUCINF ([5]; TAB, serum) of 45.757 µM·h and a CL ([5]; TAB, serum) of 0.6 mL/h/kg. It also gave a Cmax ([5]; TAB, serum) of 721 nM, a T1/2 ([5]; TAB, serum) of 74 h and an AUC0-168 ([5]; TAB, tumor) of 3.968 µM·h. It also gave a Cmax ([5]; TAB, tumor) of 63 nM, a T1/2 ([5]; TAB, tumor) of 70 h and an AUC0-24 ([5]; uMMAE, serum) of 0.031 µM·h. The AUC0-168 ([5]; uMMAE, serum) was 0.084 µM·h, the AUCINF ([5]; uMMAE, serum) was 0.095 µM·h and the T1/2 ([5]; uMMAE, serum) was 50 h. The Tmax ([5]; uMMAE, serum) was 4.8 min, the AUC0-168 ([5]; uMMAE, tumor) was 6.001 µM·h and the Cmax ([5]; uMMAE, tumor) was 50 nM. It also gave a T1/2 ([5]; uMMAE, tumor) of 105 h, an MMAE released [6, 17] of 2800 nM and an MMAE release [6] of 56%. For the same molecule, the “ADC IC50” value ([7]; BxPC3, 5-7 days) was 0.62 µg/mL, the “cytotoxic effect (in words)” value ([7]; BxPC3, high MUC1-SEA expressing) was “observed” and the IC50 ([7]; read-out: Equivalent MMAE IC50, BxPC3, ADC expressed as equivalent MMAE) was 12.6 nM.
